According to a collection of fitness landscapes (doi:10.1126/science.1257360):
The list shows a part of the results.

B1: PhoQ; a variant is named by its letters at X, in order, P23837 (parent)
chain: MKKLLRLFFPLSLRVRFLLATAAVVLVLSLAYGMVALIGYSVSFDKTTFRLLRGESNLFYTLAKWENNKLHVELPENIDKQSPTMTLIYDENGQLLWAQRDVPWLMKMIQPDWLKSNGFHEIEADVNDTSLLLSGDHSIQQQLQEVREDDDDAEMTHSVAVNVYPATSRMPKLTIVVVDTIPVELKSSYMVWSWFIYVLSANLLLVIPLLWVAAWWSLRPIEALAKEVRELEEHNRELLNPATTRELTSLVRNLNRLLKSERERYDKYRTTLTDLTHSLKTPLXXLQXXLRSLRSEKMSVSDAEPVMLEQISRISQQIGYYLHRASMRGGTLLSRELHPVAPLLDNLTSALNKVYQRKGVNISLDISPEISFVGEQNDFVEVMGNVLDNACKYCLEFVEISARQTDEHLYIVVEDDGPGIPLSKREVIFDRGQRVDTLRPGQGVGLAVAREITEQYEGKIVAGESMLGGARMEVIFGRQHSAPKDE

Variants of: B1
Assay: enrichment ratio after two sorts for PhoP signalling (ratio (wild type AVST 3.29)); higher = more functional
Conditions: with PhoP (E. coli)
Variant QNWR has an enrichment ratio of at most 0.25. IWKI was tested, and the enrichment ratio was at most 0.25. Variant DKFQ has an enrichment ratio of at most 0.25. ETMD showed an enrichment ratio of at most 0.25. PQYN was tested, and the enrichment ratio was at most 0.25. QFRA gave an enrichment ratio of at most 0.25. PQHF showed an enrichment ratio of at most 0.25. Variant QHAG has an enrichment ratio of at most 0.25. For DTMV, the enrichment ratio was at most 0.25. YFLL was tested, and the enrichment ratio was at most 0.25. In the case of IYFR, the enrichment ratio is reported as at most 0.25. SRKC gave an enrichment ratio of at most 0.25. For FYPF, the enrichment ratio was at most 0.25. Variant RDYC has an enrichment ratio of at most 0.25. Variant AYGD has an enrichment ratio of at most 0.25. Variant VECK has an enrichment ratio of at most 0.25. VRNP was tested, and the enrichment ratio was at most 0.25. TVLH showed an enrichment ratio of at most 0.25. In the case of YWGP, the enrichment ratio is reported as at most 0.25. For WSIH, the enrichment ratio was at most 0.25. In the case of RIAR, the enrichment ratio is reported as at most 0.25. CNFY gave an enrichment ratio of at most 0.25. In the case of WMFW, the enrichment ratio is reported as at most 0.25. HEQD showed an enrichment ratio of at most 0.25. NIHP showed an enrichment ratio of at most 0.25. In the case of LVLW, the enrichment ratio is reported as at most 0.25. YFIE showed an enrichment ratio of at most 0.25. NQFL was tested, and the enrichment ratio was at most 0.25. INHT showed an enrichment ratio of at most 0.25. In the case of SCYN, the enrichment ratio is reported as at most 0.25. Variant VWMH has an enrichment ratio of at most 0.25. QYNW gave an enrichment ratio of at most 0.25. Work on SKMI yielded an enrichment ratio of 4.44. With VCET the enrichment ratio was at most 0.25. ECMS gave an enrichment ratio of at most 0.25. WHML was tested, and the enrichment ratio was at most 0.25. NILC showed an enrichment ratio of at most 0.25. GGMN showed an enrichment ratio of at most 0.25. Variant IMGQ has an enrichment ratio of at most 0.25. FNDE showed an enrichment ratio of at most 0.25. GIKD was tested, and the enrichment ratio was at most 0.25. With LPHQ the enrichment ratio was at most 0.25. Variant AKFN has an enrichment ratio of at most 0.25. For SNLE, the enrichment ratio was 4.53. For DVTR, the enrichment ratio was at most 0.25. GAKY gave an enrichment ratio of at most 0.25. VTFF showed an enrichment ratio of at most 0.25. RFSH was tested, and the enrichment ratio was 0.263. AGPQ showed an enrichment ratio of at most 0.25. For GSDT, the enrichment ratio was at most 0.25. GRCG was tested, and the enrichment ratio was at most 0.25. SGGR was tested, and the enrichment ratio was at most 0.25. Variant PGRA has an enrichment ratio of at most 0.25. Variant LKPK has an enrichment ratio of at most 0.25. With IAQH the enrichment ratio was at most 0.25. Work on FQGI yielded an enrichment ratio of at most 0.25. Variant HWCG has an enrichment ratio of at most 0.25. For DIVD, the enrichment ratio was at most 0.25. Work on ELVW yielded an enrichment ratio of at most 0.25. For FIFR, the enrichment ratio was at most 0.25. EMNQ was tested, and the enrichment ratio was at most 0.25. For FGRT, the enrichment ratio was at most 0.25. LFLD showed an enrichment ratio of at most 0.25. In the case of QFWP, the enrichment ratio is reported as at most 0.25. QYPE gave an enrichment ratio of at most 0.25. With HFYG the enrichment ratio was at most 0.25. With FAGS the enrichment ratio was at most 0.25. For FMYF, the enrichment ratio was at most 0.25. Work on DIHL yielded an enrichment ratio of at most 0.25. Variant NGDW has an enrichment ratio of at most 0.25. Work on KHCC yielded an enrichment ratio of at most 0.25. VNDK gave an enrichment ratio of at most 0.25. GPNF was tested, and the enrichment ratio was at most 0.25. TRSK showed an enrichment ratio of at most 0.25. LVKK was tested, and the enrichment ratio was at most 0.25. In the case of VYHV, the enrichment ratio is reported as at most 0.25. RCSK gave an enrichment ratio of at most 0.25. Variant KPEI has an enrichment ratio of at most 0.25. Work on MCHI yielded an enrichment ratio of 5.13. GGIR was tested, and the enrichment ratio was at most 0.25. For NWVQ, the enrichment ratio was at most 0.25. NIKN was tested, and the enrichment ratio was at most 0.25. Work on RQGK yielded an enrichment ratio of at most 0.25. APHP gave an enrichment ratio of at most 0.25. DTFG was tested, and the enrichment ratio was at most 0.25. In the case of DKEC, the enrichment ratio is reported as at most 0.25. Variant FLCV has an enrichment ratio of at most 0.25. With HNVF the enrichment ratio was at most 0.25. FQWK was tested, and the enrichment ratio was at most 0.25. For FELD, the enrichment ratio was at most 0.25. MVFK gave an enrichment ratio of 1.09. Variant DHHA has an enrichment ratio of at most 0.25. MRFE showed an enrichment ratio of at most 0.25. NSTM gave an enrichment ratio of at most 0.25. LELQ gave an enrichment ratio of 3.51. Variant NYNK has an enrichment ratio of at most 0.25. With AHKQ the enrichment ratio was at most 0.25. AKLH gave an enrichment ratio of 14.6. QFRN was tested, and the enrichment ratio was at most 0.25. Variant HDHY has an enrichment ratio of at most 0.25. QQYF was tested, and the enrichment ratio was 6.45. In the case of KVSM, the enrichment ratio is reported as at most 0.25. SHSM was tested, and the enrichment ratio was 10.7. Variant STFS has an enrichment ratio of at most 0.25. In the case of RSCL, the enrichment ratio is reported as at most 0.25. In the case of FMIN, the enrichment ratio is reported as at most 0.25. TVHC was tested, and the enrichment ratio was at most 0.25. Work on VDQT yielded an enrichment ratio of at most 0.25. Work on WKVT yielded an enrichment ratio of at most 0.25. AWQD showed an enrichment ratio of at most 0.25. PMWY showed an enrichment ratio of at most 0.25. In the case of QMRN, the enrichment ratio is reported as at most 0.25. SQGS showed an enrichment ratio of 7.13. Variant TFTW has an enrichment ratio of at most 0.25. In the case of GIWS, the enrichment ratio is reported as at most 0.25. FPFV showed an enrichment ratio of at most 0.25. PNPL gave an enrichment ratio of at most 0.25. For LFEE, the enrichment ratio was at most 0.25. EQFF showed an enrichment ratio of at most 0.25. Work on NMQE yielded an enrichment ratio of at most 0.25. Variant TMYN has an enrichment ratio of 1.79. Variant DSLP has an enrichment ratio of at most 0.25. In the case of APQN, the enrichment ratio is reported as at most 0.25. With GICP the enrichment ratio was at most 0.25. In the case of SQSY, the enrichment ratio is reported as 8.96. CSFI was tested, and the enrichment ratio was at most 0.25. HGLQ gave an enrichment ratio of 9.3. PCTF gave an enrichment ratio of at most 0.25. DMDW was tested, and the enrichment ratio was at most 0.25. With NVNP the enrichment ratio was at most 0.25. Variant YLDY has an enrichment ratio of at most 0.25. Work on YVVF yielded an enrichment ratio of at most 0.25. IFAY showed an enrichment ratio of at most 0.25. VWAD gave an enrichment ratio of at most 0.25. Work on DNWQ yielded an enrichment ratio of at most 0.25. For KNRN, the enrichment ratio was at most 0.25. DVEM showed an enrichment ratio of at most 0.25. AFNH gave an enrichment ratio of at most 0.25. GTVQ was tested, and the enrichment ratio was 0.46. For SKNG, the enrichment ratio was at most 0.25. QCFM was tested, and the enrichment ratio was at most 0.25. Variant PNSF has an enrichment ratio of at most 0.25. In the case of HPAP, the enrichment ratio is reported as at most 0.25. In the case of ITPH, the enrichment ratio is reported as at most 0.25. MECI showed an enrichment ratio of 12.8. With VESI the enrichment ratio was at most 0.25. NAKS showed an enrichment ratio of at most 0.25. With LPFP the enrichment ratio was at most 0.25. AVQK gave an enrichment ratio of at most 0.25. Variant WEYK has an enrichment ratio of at most 0.25. For WHSY, the enrichment ratio was at most 0.25. Variant TQNP has an enrichment ratio of at most 0.25. Variant QTCL has an enrichment ratio of at most 0.25.
